Test results: the supplement of paper PMC7826260
Some of the results follow. The data describe in vitro nicking of single-stranded DNA by Rep domains (1 h at 37 °C, 3 µM enzyme); the outer parts of the 90-letter strands are left off. Uncut reads are compared with the no-enzyme pool on a log2 scale; the lower, the more was cut; hits are not called. Reads are scaled to the total, so uncut sequences can rise above 0 when many others are cut.

Columns and labels:
Assay in all cases: uncleaved DNA left, log2 of reads against the no-enzyme library (log2 ratio); higher = less cleavage (more negative = more Rep cleavage of the k-mer); sequences stand for … in CTCGTCCG…ACCGGAGA
[1] = system: T1, Rep nickase domain of Muscovy duck circovirus
T1 sequence (Rep 1-111, printed without the tag): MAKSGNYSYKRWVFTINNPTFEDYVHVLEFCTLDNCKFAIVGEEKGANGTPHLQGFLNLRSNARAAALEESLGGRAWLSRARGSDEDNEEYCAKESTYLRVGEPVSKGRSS
Procedure: (§1)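 A pool of 90-nt single-stranded DNAs with seven random bases just before the constant AC of the nick site (name = the seven bases) was cut by 3 µM recombinant His6-SUMO-tagged Rep nickase domain (300 nM DNA, 50 mM HEPES pH 8.0, 50 mM NaCl, 1 mM MnCl2, 1 h, 37 °C, three replicates). Uncut DNA was amplified and sequenced.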

[2] = system: T2, Rep nickase domain of banana bunchy top virus
T2 sequence (Rep 1-94, printed without the tag): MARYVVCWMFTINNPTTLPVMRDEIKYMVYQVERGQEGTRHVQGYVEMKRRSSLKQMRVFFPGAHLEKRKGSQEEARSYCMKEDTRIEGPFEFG
Procedure: as §1

[3] = system: T3, Rep nickase domain of cabbage leaf curl virus
T3 sequence (Rep 1-116, printed without the tag): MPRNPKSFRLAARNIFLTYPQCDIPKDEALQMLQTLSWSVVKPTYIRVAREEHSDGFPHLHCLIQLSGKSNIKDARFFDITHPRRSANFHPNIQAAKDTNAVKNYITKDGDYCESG
Procedure: as §1

[4] = system: T4, Rep nickase domain of chickpea chlorotic dwarf virus
T4 sequence (Rep 1-124, printed without the tag): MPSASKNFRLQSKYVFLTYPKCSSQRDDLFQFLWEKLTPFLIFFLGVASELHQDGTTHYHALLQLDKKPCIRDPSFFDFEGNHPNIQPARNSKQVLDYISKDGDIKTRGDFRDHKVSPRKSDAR
Procedure: as §1

[5] = system: T5, Rep nickase domain of faba bean necrotic yellows virus
T5 sequence (Rep 1-98, printed without the tag): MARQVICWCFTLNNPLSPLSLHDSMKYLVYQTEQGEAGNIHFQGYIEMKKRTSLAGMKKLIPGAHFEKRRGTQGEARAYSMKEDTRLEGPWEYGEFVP
Procedure: as §1

[6] = system: T6, Rep nickase domain of maize striate mosaic virus
T6 sequence (Rep 1-117, printed without the tag): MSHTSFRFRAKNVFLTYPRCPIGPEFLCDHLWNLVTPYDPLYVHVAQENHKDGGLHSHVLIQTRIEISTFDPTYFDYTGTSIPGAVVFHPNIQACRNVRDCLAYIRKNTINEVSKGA
Procedure: as §1

[7] = system: T7, Rep nickase domain of porcine circovirus 2
T7 sequence (Rep 2-116, printed without the tag): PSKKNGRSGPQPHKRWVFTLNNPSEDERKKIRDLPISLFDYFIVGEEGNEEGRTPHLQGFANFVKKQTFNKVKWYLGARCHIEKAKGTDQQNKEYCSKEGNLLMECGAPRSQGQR
Procedure: as §1

[8] = system: T8, Rep nickase domain of tomato golden mosaic virus
T8 sequence (Rep 1-124, printed without the tag): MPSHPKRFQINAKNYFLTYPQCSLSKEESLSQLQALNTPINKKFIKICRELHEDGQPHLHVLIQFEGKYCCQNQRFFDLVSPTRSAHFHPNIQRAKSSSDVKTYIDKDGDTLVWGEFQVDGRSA
Procedure: as §1

[9] = system: T9, Rep nickase domain of tomato yellow leaf curl virus
T9 sequence (Rep 1-136, printed without the tag): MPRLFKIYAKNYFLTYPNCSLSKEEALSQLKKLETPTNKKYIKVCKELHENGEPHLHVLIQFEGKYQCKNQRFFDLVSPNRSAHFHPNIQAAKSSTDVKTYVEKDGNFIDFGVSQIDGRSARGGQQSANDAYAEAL
Procedure: as §1

[10] = system: T10, Rep nickase domain of wheat dwarf virus
T10 sequence (Rep 1-137, printed without the tag): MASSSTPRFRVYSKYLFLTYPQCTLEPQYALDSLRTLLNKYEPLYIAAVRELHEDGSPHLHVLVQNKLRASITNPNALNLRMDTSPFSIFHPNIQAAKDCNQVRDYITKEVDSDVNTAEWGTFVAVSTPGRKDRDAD
Procedure: as §1

| Sequence | uncleaved DNA left (log2) [1] | uncleaved DNA left (log2) [2] | uncleaved DNA left (log2) [3] | uncleaved DNA left (log2) [4] | uncleaved DNA left (log2) [5] | uncleaved DNA left (log2) [6] | uncleaved DNA left (log2) [7] | uncleaved DNA left (log2) [8] | uncleaved DNA left (log2) [9] | uncleaved DNA left (log2) [10] |
| --- | --- | --- | --- | --- | --- | --- | --- | --- | --- | --- |
| TTTCCCA | -0.568 | -0.0546 | 0.169 | -0.642 | -0.133 | 0.056 | -2.78 | -0.0534 | -0.00772 | -0.00707 |
| AGAATTC | 0.0152 | 0.014 | 0.153 | 0.262 | 0.0309 | -0.595 | -0.0132 | 0.0326 | -0.0402 | -0.0179 |
| CTGACGG | -0.0505 | -0.0486 | 0.122 | 0.773 | -0.1 | 0.895 | 0.0276 | 0.0135 | -0.158 | -0.0817 |
| AGGGCGT | 0.14 | 0.0427 | 0.0791 | 0.429 | 0.124 | 0.0754 | 0.209 | 0.115 | -0.00695 | 0.0812 |
| GCTCCTC | -0.0128 | 0.191 | 0.261 | 0.471 | 0.015 | 0.709 | 0.214 | 0.136 | 0.104 | 0.154 |
| CTCTGTG | 0.0278 | -0.196 | -0.997 | -0.247 | 0.0377 | -0.973 | 0.0841 | -0.0521 | 0.00944 | -0.259 |
| CGCCTAT | -0.188 | -0.122 | 0.0084 | -0.459 | 0.032 | -0.325 | -0.165 | -0.174 | -0.0903 | -0.226 |
| TCAATCT | 0.0283 | 0.129 | -0.0477 | -0.113 | -0.0202 | 1.28 | -0.000755 | -0.025 | 0.132 | 0.129 |
| CTAACTT | 0.0158 | -0.0962 | -0.217 | -2.54 | 0.063 | -0.523 | -0.345 | 0.0462 | -0.0295 | -0.0328 |
| CTATATG | 0.116 | -0.0206 | -0.532 | -0.559 | -0.0218 | -1.17 | 0.0818 | -0.0365 | -0.0133 | 0.0335 |
| CTCGGGT | 0.156 | 0.169 | 0.472 | 0.82 | 0.0409 | 1.31 | 0.172 | 0.0732 | 0.149 | 0.0588 |
| GTAACGT | 0.0131 | 0.134 | 0.192 | 0.673 | 0.0454 | 1.18 | 0.134 | 0.104 | 0.175 | 0.109 |
| ACTGTTT | -0.0726 | -0.0843 | -0.213 | -1.22 | 0.0523 | 0.0438 | -0.499 | -0.00773 | -0.114 | -0.14 |
| GGGAATT | -0.092 | 0.0316 | 0.679 | 1.86 | -0.0733 | 2.12 | 0.0542 | -0.11 | -7.91e-05 | 0.00985 |
| GCCAAAT | 0.0397 | 0.102 | 0.164 | 0.398 | 0.0129 | 0.332 | 0.0133 | 0.106 | 0.0683 | 0.14 |
